Measurements as given in article PMC6919601, “Identification of Plasmodium dipeptidyl aminopeptidase allosteric inhibitors by high throughput screening” (PLoS ONE, 2019).
Screen size: about 110,000 compounds; about 230 (0.21%) showed an effect of 50% or more. Some of the results follow.
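Further: 30 min substrate incubation versus DMSO and 10 µM JCP410 controls.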

What follows are compounds tested against DPAP1 (Plasmodium falciparum, UniProt Q8IIJ9) (assay: primary screen, percent inhibition; read by cleavage of a fluorogenic dipeptide substrate; higher = more effect of the substance).
Sequence of DPAP1 (Q8IIJ9 whole entry, looked up): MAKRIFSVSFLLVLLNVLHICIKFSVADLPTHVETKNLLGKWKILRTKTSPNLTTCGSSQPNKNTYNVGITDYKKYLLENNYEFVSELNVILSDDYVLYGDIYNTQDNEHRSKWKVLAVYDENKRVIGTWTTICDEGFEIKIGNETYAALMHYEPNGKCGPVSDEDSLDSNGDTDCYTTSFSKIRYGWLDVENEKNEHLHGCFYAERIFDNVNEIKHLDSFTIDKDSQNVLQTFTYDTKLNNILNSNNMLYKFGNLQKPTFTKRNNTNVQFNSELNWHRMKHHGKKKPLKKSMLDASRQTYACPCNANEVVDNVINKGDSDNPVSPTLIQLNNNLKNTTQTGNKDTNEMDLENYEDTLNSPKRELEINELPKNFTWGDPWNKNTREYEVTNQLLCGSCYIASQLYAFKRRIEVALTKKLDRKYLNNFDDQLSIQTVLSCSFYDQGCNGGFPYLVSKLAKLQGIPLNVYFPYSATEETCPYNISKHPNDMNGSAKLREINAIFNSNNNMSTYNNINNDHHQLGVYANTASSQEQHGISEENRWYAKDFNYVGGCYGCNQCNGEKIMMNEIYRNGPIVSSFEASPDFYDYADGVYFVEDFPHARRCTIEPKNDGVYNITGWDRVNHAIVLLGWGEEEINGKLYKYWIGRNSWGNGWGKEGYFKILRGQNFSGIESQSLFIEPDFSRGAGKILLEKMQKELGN
Parameters: species or system P. falciparum D10 trophozoite lysates; single well
With CSc1ncc(C(=O)NCc2ccco2)c(C(F)(F)F)n1 the “% Inhibition @ 10 uM” value was 4.17%. COCCNC(=O)c1cc(-c2ccncc2)nc2ccc(S(=O)(=O)N3CCC(C)CC3)cc12 was tested, and the “% Inhibition @ 10 uM” value was 3.93%. For O=C(NCc1ccccc1)c1cccc(Br)c1, the “% Inhibition @ 10 uM” value was -3.55%. For Cc1ccc2c(Cl)c(C(=O)NCCCn3ccnc3)sc2c1, the “% Inhibition @ 10 uM” value was 5.54%. With COc1cc(Cl)cc(OC)c1NC(=O)Cc1cccs1 the “% Inhibition @ 10 uM” value was -16.2%. In the case of Cc1cc(NC(=O)c2cc(-c3ccc(F)cc3)no2)nn1CC(=O)NCc1ccco1, the “% Inhibition @ 10 uM” value is reported as 5.11%. For CCC(=O)c1c(OCc2ccc(Cl)cc2)ccc2c(C)cc(=O)oc12, the “% Inhibition @ 10 uM” value was -0.45%. In the case of CN(C)/C=N/C(=O)/C(C#N)=C1\CCc2ccccc2N1, the “% Inhibition @ 10 uM” value is reported as 3.88%. In the case of CCc1c(O)nc(SCC(=O)N(CC)CC)n(-c2ccccc2)c1=O, the “% Inhibition @ 10 uM” value is reported as 4.22%. COc1cccc(NC(=O)c2ccc3c(c2)C(=O)N(CC2CCCO2)C3=O)c1 (centres unmarked) was tested, and the “% Inhibition @ 10 uM” value was -9.07%. In the case of O=C(NCc1cccnc1)C1CCC(=O)N1CCc1ccccc1 (centres unmarked), the “% Inhibition @ 10 uM” value is reported as 4.81%. With Cc1ccc(CCNC(=O)c2cc3c(s2)CS(=O)(=O)C3)cc1 the “% Inhibition @ 10 uM” value was -9.48%. Cc1ccc(S(=O)(=O)Nc2ccccc2C(=O)NCC(C)C)cc1 was tested, and the “% Inhibition @ 10 uM” value was -2.32%. With O=C1/C(=C/c2ccc(O)c(O)c2)Oc2ccccc21 the “% Inhibition @ 10 uM” value was -2.8%. For COc1ccccc1CNc1ncnc2onc(C)c12, the “% Inhibition @ 10 uM” value was -4.78%. With CC1CCCC(C)N1CC(O)COCc1ccccc1 (centres unmarked) the “% Inhibition @ 10 uM” value was -7.39%. With O=C(O)c1cn(-c2ccc(N3CCCC3)c(F)c2)c2c(F)c(N3CCOCC3)c(F)cc2c1=O the “% Inhibition @ 10 uM” value was -1.04%. For Cc1ccc2c(=O)cc(C(=O)Nc3nnc(C(C)C)s3)oc2c1C, the “% Inhibition @ 10 uM” value was 0.248%. With COc1ccc(-c2nc3s/c(=C\C=C\c4ccccc4)c(=O)n3n2)cc1 the “% Inhibition @ 10 uM” value was -3.06%. CCC(C(=O)n1nnc2ccccc21)c1ccccc1 (centres unmarked) was tested, and the “% Inhibition @ 10 uM” value was -3.04%. Cc1ccc(Nc2nc(-c3ccc(Cl)cc3)cs2)cc1C was tested, and the “% Inhibition @ 10 uM” value was 0.986%. COc1cc(C2C3=C(O)CCCC3=NC(C)=C2C(=O)Nc2ccccn2)ccc1OCc1ccccc1 (centres unmarked) was tested, and the “% Inhibition @ 10 uM” value was 0.983%. For O=C(O)c1cccc([N+](=O)[O-])c1C(=O)Nc1ccc([N+](=O)[O-])cc1, the “% Inhibition @ 10 uM” value was -2.62%. For Cc1cc(O)n2nc(NC(=O)c3ccccc3)nc2n1, the “% Inhibition @ 10 uM” value was 0.401%. With Cn1c(SCC(=O)N(CCO)CCO)nc2ccccc2c1=O the “% Inhibition @ 10 uM” value was 4.84%. For Sc1nn2nnnc2c2ccccc12, the “% Inhibition @ 10 uM” value was 6.07%. For CCCCNC(=O)NC(C(F)(F)F)C(F)(F)F, the “% Inhibition @ 10 uM” value was 0.986%. With Cc1cccc(NC(=O)c2ccc(C(=O)c3ccccc3)o2)c1 the “% Inhibition @ 10 uM” value was 2.09%. O=c1/c(=C/c2ccccc2Cl)sc2ncnn12 was tested, and the “% Inhibition @ 10 uM” value was 3.54%. With CCc1ccccc1NC(=O)c1ccccc1C the “% Inhibition @ 10 uM” value was 7.64%. CC(C)Oc1ccccc1C1C2=C(O)CC(C)(C)CC2=NC2=C1C(=O)CC(C)(C)C2 (centres unmarked) was tested, and the “% Inhibition @ 10 uM” value was -6.36%. CCOc1ccc(-c2csc(/C(C#N)=C/c3ccccc3F)n2)cc1 was tested, and the “% Inhibition @ 10 uM” value was 0.135%. With O=C1c2ccccc2C(=O)N1Cc1ccccc1Cl the “% Inhibition @ 10 uM” value was -1.03%. For Cc1nc(-c2ccccc2)cn2c1nc1ccccc12, the “% Inhibition @ 10 uM” value was 2.09%. For Cc1c(Cl)cccc1NS(=O)(=O)c1cc(Cl)ccc1Cl, the “% Inhibition @ 10 uM” value was -0.856%. For C=CCn1c(SCC(=O)N2CCOCC2)nc2sc(C)c(C)c2c1=O, the “% Inhibition @ 10 uM” value was -2.53%. For O=C(CCCn1c2ccccc2c2cnnc(O)c21)NCC1CCCO1 (centres unmarked), the “% Inhibition @ 10 uM” value was -2%. With CN(C(=O)CSc1c2c(nc3ccccc13)CCC2)C1CCCCC1 the “% Inhibition @ 10 uM” value was -11.3%. CC1CCN(C(=O)CSc2nc3c(c(=O)n2CCc2ccccc2)SC(C)C3)CC1 (centres unmarked) was tested, and the “% Inhibition @ 10 uM” value was 1.39%. O=C(c1cc(-c2ccc(Cl)c(Cl)c2)nc2ccccc12)N1CCOCC1 was tested, and the “% Inhibition @ 10 uM” value was 0.381%. With COc1cc(OC)c(CN2CCC(O)CC2)cc1Br the “% Inhibition @ 10 uM” value was -6.47%. COc1ccc(C(=O)N2CCN(Cc3ccc(Br)cc3)CC2)cc1OC was tested, and the “% Inhibition @ 10 uM” value was -4.26%. In the case of O=C(NCC1CCCO1)C(=O)NC1CC1 (centres unmarked), the “% Inhibition @ 10 uM” value is reported as -1.17%. In the case of COc1cc(OC)c(OC)cc1CN1CCN(Cc2ccc(Cl)cc2)CC1, the “% Inhibition @ 10 uM” value is reported as 0.873%. N#Cc1cccc(NC(=O)COc2ccccc2)c1 was tested, and the “% Inhibition @ 10 uM” value was -0.992%. For Cn1cc(/C=C2\C(=O)NC(=O)N(c3ccc(Cl)cc3)C2=O)c2ccccc21, the “% Inhibition @ 10 uM” value was 3.82%. With COCCN1Cc2cccc(C(=O)N3CCN(C4CCCCC4)CC3)c2C1=O the “% Inhibition @ 10 uM” value was 2.9%. In the case of C=CCn1c(SCc2ccc(C(=O)OC)cc2)nc2sc(C)c(C)c2c1=O, the “% Inhibition @ 10 uM” value is reported as 1.39%. CCCCCC(=O)Nc1ccc(CC#N)cc1 was tested, and the “% Inhibition @ 10 uM” value was -1.61%. For Cc1ccc(NC(=O)c2c(O)nc3ccccc3c2O)c(C)c1, the “% Inhibition @ 10 uM” value was -11.4%. In the case of N#CC(C(=O)NC1CCCCC1)=C1CCCCC1, the “% Inhibition @ 10 uM” value is reported as -2.8%. With O=C1CC(NCCc2ccc(Cl)cc2)C(=O)N1c1ccc(F)cc1 (centres unmarked) the “% Inhibition @ 10 uM” value was -2.83%. For O=S(=O)(c1ccc(-n2cccn2)cc1)N1CCn2c1nc1ccccc12, the “% Inhibition @ 10 uM” value was 3.54%. For CC(C)C[C@H](NC(=O)c1cccc(-c2cc(Cl)cc(Cl)c2)c1)C(=O)NCC#N, the “% Inhibition @ 10 uM” value was -3.69%. COc1ccc2cc(C(=O)O)c(=O)oc2c1 was tested, and the “% Inhibition @ 10 uM” value was -4.01%. In the case of Cc1c2cnn(CC(=O)NCC(C)c3ccccc3)c(=O)c2c(C)n1Cc1ccc(F)cc1 (centres unmarked), the “% Inhibition @ 10 uM” value is reported as -0.447%. For CC1=CC(C)=Nc2cc(C)ccc2N1, the “% Inhibition @ 10 uM” value was 2.13%. For Nc1nc(S)ncc1S(=O)(=O)c1ccccc1, the “% Inhibition @ 10 uM” value was 49.3%. In the case of COc1ccc(-c2nc3c(c(SC)n2)Cc2cccc(OC)c2O3)cc1, the “% Inhibition @ 10 uM” value is reported as -1.21%. COc1ccc(Br)cc1/C=c1\sc2nc(=O)c(-c3ccccc3)nn2c1=O was tested, and the “% Inhibition @ 10 uM” value was -1.75%. In the case of COc1ccccc1/C=C/C=C1\N=C(c2cc(Cl)ccc2OC)OC1=O, the “% Inhibition @ 10 uM” value is reported as -0.48%. In the case of Cc1nc(O)nc(O)c1S(=O)(=O)N1CCCCC1C (centres unmarked), the “% Inhibition @ 10 uM” value is reported as 2.07%. For C=CCN1C(=O)N/C(=C/c2ccccc2F)C1=O, the “% Inhibition @ 10 uM” value was -1.24%. For CC1=C(CCN2CCN(c3ccccc3F)CC2)C(C)(C)CCC1, the “% Inhibition @ 10 uM” value was 0.0792%. Cc1ccc(NC(=O)CSc2nccn2C)cc1C was tested, and the “% Inhibition @ 10 uM” value was 1.8%. In the case of NCCc1c[nH]c2c(Cl)cc(Cl)cc12, the “% Inhibition @ 10 uM” value is reported as -5.46%. For O=C(O)C1CCCN1C(=O)c1cccnc1 (centres unmarked), the “% Inhibition @ 10 uM” value was -2.91%. In the case of CC(C)c1ccc(C(C)(C)C)cc1S(N)(=O)=O, the “% Inhibition @ 10 uM” value is reported as -3.16%. For CCCCCCN1C=CC(=C2C(=O)c3ccccc3C2=O)C=C1, the “% Inhibition @ 10 uM” value was 4.16%. COC(=O)c1nnn(-c2nonc2N)c1CSC1=NCCS1 was tested, and the “% Inhibition @ 10 uM” value was 10.6%. With NS(=O)(=O)c1ccc(CNC(=O)c2cc(=O)c3ccccc3o2)cc1 the “% Inhibition @ 10 uM” value was 3.51%. Cc1cccc(CN2CCN(c3ccccc3)CC2)c1 was tested, and the “% Inhibition @ 10 uM” value was -1.92%. With Brc1ccc(CSc2c[nH]c3ccccc23)cc1 the “% Inhibition @ 10 uM” value was 12.1%. With CC(=O)NS(=O)(=O)c1ccc(NC(=O)COc2ccc(Cl)cc2C)cc1 the “% Inhibition @ 10 uM” value was -3.33%. In the case of Fc1ccc(N2CCN(Cc3c4ccccc4c(Cl)c4ccccc34)CC2)cc1, the “% Inhibition @ 10 uM” value is reported as -1.64%. With N#C/C(=C\c1c(Oc2ccccc2Cl)nc2ccccn2c1=O)C(=O)NCC1CCCO1 (centres unmarked) the “% Inhibition @ 10 uM” value was 4.99%. With O=C(NCc1ccccc1Cl)c1cc(-c2ccncc2)nc2ccccc12 the “% Inhibition @ 10 uM” value was -4.06%. With Cc1cc(C)n(CCc2nc3c4ccccc4nc(N4CCN(C(=O)c5ccco5)CC4)n3n2)n1 the “% Inhibition @ 10 uM” value was 0.981%. In the case of CCc1ccc(C2CC(=O)NC3=C2C(=O)CCC3)cc1 (centres unmarked), the “% Inhibition @ 10 uM” value is reported as 0.205%. For C=CCOn1c(C)c(C(C)=O)c2c3no[n+]([O-])c3ccc21, the “% Inhibition @ 10 uM” value was -0.988%. CCN(CC)C(=O)Cn1nc(-c2ccc(Cl)cc2)c2ccccc2c1=O was tested, and the “% Inhibition @ 10 uM” value was -3.96%. For CN1CCCc2c1nc1c(c2N)CCCC1, the “% Inhibition @ 10 uM” value was -2.91%. In the case of Cc1cc(-c2ncccc2O)cc(C)c1O, the “% Inhibition @ 10 uM” value is reported as 3.98%. For Cc1ccc2nc3c(cc(S(=O)(=O)c4ccc(Cl)cc4)c(=N)n3Cc3ccco3)c(=O)n2c1, the “% Inhibition @ 10 uM” value was 13.6%. With CC1=C(C(=O)Nc2ccc(C)cc2)C(c2ccc(N(C)C)cc2)NC(=O)N1 (centres unmarked) the “% Inhibition @ 10 uM” value was -1.54%. For CCOC(=O)N1CCC(N(CC)CCN(C)C)CC1, the “% Inhibition @ 10 uM” value was -2.95%. For O=S1(=O)C=C(Oc2ccc3ccccc3c2)c2ccccc21, the “% Inhibition @ 10 uM” value was -6.42%. In the case of Fc1ccc(N2CCN(C/C(Cl)=C/c3ccccc3)CC2)cc1, the “% Inhibition @ 10 uM” value is reported as 1.88%. Cc1nn(C(C)C(=O)NCCc2ccc(Cl)cc2)c(=O)c2nn(-c3ccccc3)c(C)c12 (centres unmarked) was tested, and the “% Inhibition @ 10 uM” value was -1.94%. With Cc1cc(C(F)(F)F)c2c(N)c(C(=O)c3ccc(Br)cc3)sc2n1 the “% Inhibition @ 10 uM” value was 0.605%. In the case of Cc1cc(C)n2nc(CCC(=O)NCc3ccc(Cl)cc3)nc2n1, the “% Inhibition @ 10 uM” value is reported as -6.62%. In the case of COc1ccc(C2=NS(=O)(=O)N(C)C(C(=O)NCc3cccnc3)=C2)cc1, the “% Inhibition @ 10 uM” value is reported as 2.32%. For N=C1C[N+](CC23CC4CC(CC(C4)C2)C3)=NO1, the “% Inhibition @ 10 uM” value was 0.146%. With CCn1c(SCC(=O)O)nnc1-c1c[nH]c2ccccc12 the “% Inhibition @ 10 uM” value was -2.05%. With COc1ccc2c(c1)CC(N1CCN(C)CC1)c1cc(OC)ccc1S2 (centres unmarked) the “% Inhibition @ 10 uM” value was 2.19%. For Cc1nc2ncnn2c(C)c1CCC(=O)N1CCC(Cc2ccccc2)CC1, the “% Inhibition @ 10 uM” value was -0.685%. In the case of CCN1CCN(Cc2csc(C)c2-c2ccc(C)cc2)CC1, the “% Inhibition @ 10 uM” value is reported as -0.751%. With CC(=O)/C=C/c1ccc(-c2cc(Cl)ccc2Cl)o1 the “% Inhibition @ 10 uM” value was -1.5%. Cc1ccc(/C=C(\C#N)c2nc(-c3ccc(C)cc3C)cs2)cc1 was tested, and the “% Inhibition @ 10 uM” value was 0.98%. With COc1ccc2ccccc2c1C1NC(SCc2ccccc2C#N)=NC(C)=C1C(C)=O (centres unmarked) the “% Inhibition @ 10 uM” value was 3.06%. CC1(C)CC(c2csc(N)n2)CCO1 (centres unmarked) was tested, and the “% Inhibition @ 10 uM” value was 3.01%. For COc1ccc(-c2cc(C(F)(F)F)n3ncc(C(=O)NC(C)(C)C)c3n2)cc1OC, the “% Inhibition @ 10 uM” value was -13.4%. For COc1cc(CNC2CCCC2)cc(OC)c1, the “% Inhibition @ 10 uM” value was 2.65%. For Cc1nnc(NC(=O)CNC(=O)Cn2c(C)cc3ccccc3c2=O)s1, the “% Inhibition @ 10 uM” value was 5.85%.
